Consider 92 compounds from PubChem BioAssay AID1508624 (National Center for Advancing Translational Sciences (NCATS), 2021).

Hit rate of the full screen: of about 48,000 compounds, about 120 (0.25%) were called active. Inconclusive results (about 4%) are left out. The call rests on the fitted dose curve; in most records, active means well fitted activation curve with a large enough effect; inconclusive means small, poorly fitted or top-dose-only effect, or another doubt; inactive means no such curve, though single readings can be large or run the other way. The list shows a part of the results.

The test can be described thus: Primary qHTS for Identification of Small Molecule Activators of Huntingtin-Antisense Promoter Activity. Further: nearly all actives have a fitted effect of over 55% in size. Conditions: HEK293 HTT-AS promoter firefly luciferase reporter, 24 h; series mostly up to 57.5 µM; activity change, positive = activation: at the top concentration. In short, it runs like this: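 Firefly luciferase signal from promoter-reporter HEK293 cells was scaled between vehicle (0%) and zero RLU (-100%). Compounds were tested at final concentrations of up to 57.5 uM over 24 h at 37 degrees C. PTC124 at 50 uM final served as control inhibitor.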
In general terms: qHTS replaces the single test concentration by a dilution series.
Turning to `COc1ccc(CNC(=O)C2CCN(C(=O)N3CC(C)Oc4ccc(C)cc43)CC2)cc1` (configuration not stated), the “activity change, positive = activation” value is inactive: -33.1%.
Take `Cn1c(=O)c2sccc2n2c(CCC(=O)NCc3ccccc3Cl)nnc12`: the “activity change, positive = activation” value was inactive: -13.1%.
The figure for `O=C(Nc1ccc(Cl)cc1)c1cc(S(=O)(=O)N2CCc3ccccc32)ccc1F` is inactive: -33.2%; for `COc1ccc(-c2nc(Cn3c(SCc4ccccc4F)nc4ccncc43)c(C)o2)cc1OC` it is inactive: -16.3%; for `CCOc1ccc(C(=O)Nc2cc(-c3cn4cccnc4n3)ccc2C)cc1OCC` it is inactive: -14.8%.
The figure for `Cc1cc(C)cc(NC(=O)C2CCC(CNS(=O)(=O)c3ccc4c(c3)C(C)(C)C(=O)N4C)CC2)c1` (configuration not stated) is inactive: -48.8%.
The result for `CCn1cc(C(=O)NCCc2ccc(C)cc2)c(=O)c2cc(S(=O)(=O)N3CCCCC3)ccc21` reads inactive: 26.4% [at 11.5 µM, percent change from vehicle, -100% = no light].
Regarding `COc1ccc(CCNC(=O)c2c(C)oc3ncn(CC(C)C)c(=O)c23)cc1OC`, the “activity change, positive = activation” value is inactive: -13.3%.
The figure for `Cc1cccc(NC(=O)c2oc3ccccc3c2NC(=O)c2cc(=O)c3cc(Cl)ccc3o2)c1` is inactive: -1.13%; for `CCOC(=O)c1ccc(OC(=O)CCCCCN=C(N)N)cc1` it is “inactive”; for `COc1ccc(C)cc1NC(=O)CSc1ccc(-c2ccccn2)nn1` it is inactive: -16.9%.
For the compound `Cn1c(SCC(=O)c2ccc(F)cc2)nnc1-c1ccccc1Br`, the “activity change, positive = activation” value is inactive: -15.2%.
The figure for `COc1ccccc1C(=O)Nc1c(C(=O)N(C)c2ccccc2)sc2nc(C)cc(C)c12` is inactive: -11.1%.
For `Cc1nn2c(=O)cc(COC(=O)c3cccc(NC(=O)c4ccc(C(C)(C)C)cc4)c3)nc2s1`, the “activity change, positive = activation” value is inactive: -3.59%.
The figure for `O=C(COC(=O)c1cccc(NC(=O)c2ccc(Br)cc2)c1)c1ccc(Br)cc1` is inactive: -9.68%; for `COc1cccc(C(=O)Nc2ccc3nc(N4CCC(C)CC4)cc(C)c3c2)c1` it is inactive: -37.3%.
The figure for `CCOC(=O)c1[nH]c2c(c1Cc1ccccc1OC)C(=O)CC(c1ccc(OCC)cc1)C2` (configuration not stated) is inactive: -16.8%; for `COc1ccc(C(=O)CCC(=O)Nc2ccc(OC)c(Cl)c2)cc1` it is inactive: -11.8%; for `COc1ccc(C2=CC(c3cccc(C)c3)n3nnnc3N2)cc1` (configuration not stated) it is inactive: -21.9%.
Turning to `CCOC(=O)c1c(C)oc2nc(C)nc(NCCc3ccc(SC)cc3)c12`, the “activity change, positive = activation” value was inactive: -7.68%.
The result for `Cc1ccc(S(=O)(=O)c2nc(S(C)(=O)=O)sc2NCc2ccccc2)cc1` reads inactive: -29.5%; that for `COc1cc(NC(=O)Cn2nc(-c3ccc(C)c(C)c3)ccc2=O)cc(OC)c1`, inactive: -25.2%.
The result for `CCN(CC)S(=O)(=O)c1ccc2c(c1)N(CC(=O)Nc1ccc(C)cc1C)C(=O)C1CCCN21` (configuration not stated) reads inactive: -19.3%; that for `CC(C)NC(=O)c1ccccc1NC(=O)c1nsc2ccccc12`, inactive: 10.4%.
On to `O=C(Cn1c(=O)n(-c2ccc(Cl)cc2)c(=O)c2oc3ccccc3c21)Nc1ccccc1`, for which the “activity change, positive = activation” value was inactive: -22.1%.
For the compound `CC1CCN(c2ncnc3c2nnn3C)CC1`, the “activity change, positive = activation” value was inactive: 5.77%.
Consider `CCN(CC)S(=O)(=O)c1nnc(NC(=O)c2ccc(C(C)C)cc2)s1`, for which the “activity change, positive = activation” value is inactive: -24.6%.
The figure for `COc1cccc(C(=O)Nc2ccccc2-c2nnc(-c3cc(OC)ccc3Br)o2)c1` is inactive: -12.5%; for `COc1ccc(C2=C(C)C(=O)N(Cc3ccc(C(=O)Nc4cc(C)ccc4C)cc3)S2(=O)=O)cc1` it is inactive: -35.4%.
The figure for `O=C(Cc1ccc(Cl)cc1)NCC(c1cccs1)S(=O)(=O)c1ccc(F)cc1` (configuration not stated) is inactive: -31.9%.
As to `Cn1cnc(S(=O)(=O)N2CCC(C(=O)NCc3ccc(F)cc3)CC2)c1`, the “activity change, positive = activation” value is inactive: -4.6%.
The result for `CCCSS/C(CCO)=C(\C)N(C=O)Cc1cnc(C)nc1N` reads inactive: 4.58%; that for `Cc1cccc(N2CCN(CCCNC(=O)c3nnc(Cc4c(F)cccc4Cl)o3)CC2C)c1` (configuration not stated), inactive: -33.3%; that for `O=S(=O)(O)CCSSCCS(=O)(=O)O`, inactive: -25.6%.
The figure for `O=C(COCc1cc(-c2cccs2)on1)Nc1ccc(OC(F)(F)F)cc1` is inactive: -1.96%.
The result for `Cc1cc2c(cc1C)NC(CC(=O)Nc1ccccc1SC(F)(F)F)C(=O)N2` (configuration not stated) reads inactive: -4.02%.
With `COc1cc2c(Nc3ccc(Cl)c(Cl)c3F)ncnc2cc1OCC1C[C@@H]2CN(C)C[C@H]2C1`, the “activity change, positive = activation” value was inactive: -50.2%.
In the case of `CCCCOc1ccc(NC(=O)Cn2nnnc2-c2ccccc2F)cc1`, the “activity change, positive = activation” value is inactive: -5.28%.
The result for `Cc1ccc(S(=O)(=O)c2nc(-c3ccco3)oc2SCC(C)C)cc1` reads inactive: -5.19%; that for `COc1cc(OC)c(NC(=O)Cn2cnc3sc(C)c(S(=O)(=O)N4CCN(C)CC4)c3c2=O)cc1Cl`, inactive: -12.1%; that for `COc1ccc2ncc3c(-c4ccc(C)c(C)c4)nn(CC(=O)NC4CCCCC4)c3c2c1`, inactive: -4.46%.
The result for `CCc1cc2c(cc3c(=O)n(CC(=O)N4CCCCC4)ncn32)s1` reads inactive: 3.85%.
The result for `CCOc1ccc2nc(N3CCCC(C(=O)Nc4cccc(Cl)c4C)C3)sc2c1` (configuration not stated) reads inactive: 33.2%; that for `O=C(Cc1ccc(NC(=O)N2CCCCc3ccccc32)cc1)NCc1ccccc1`, inactive: -29.2%; that for `CCCCN(CCCC)CCNC(=O)c1cc(-c2cccnc2)nc2ccc(S(=O)(=O)N3CCC(C)CC3)cc12`, inactive: -3.89%.
As for `CCCCn1cc(S(=O)(=O)c2ccc(F)cc2)c(=O)c2ccccc21`, the “activity change, positive = activation” value was inactive: 5.3%.
`COc1ccccc1CNC(=O)c1ccc(-c2nc(CS(=O)c3ccccc3)c(C)o2)cc1` (configuration not stated): the “activity change, positive = activation” value is inactive: 10.8%.
The result for `N#CC(=C(O)c1ccc(Cl)cc1Cl)c1nc2cc(Cl)ccc2c(=O)[nH]1` reads inactive: -16.2%.
Take `Cc1ccc(Cl)cc1NC(=O)CN1C(=O)COc2ccc(S(=O)(=O)N3CCOCC3)cc21`: the “activity change, positive = activation” value is inactive: -20.6%.
In the case of `Cc1cnc2c(c1SCC(=O)Nc1ccc(F)cc1F)c(=O)n(C)c(=O)n2C`, the “activity change, positive = activation” value is inactive: -5.16%.
The result for `Cc1cc(F)ccc1NC(=O)C1CCCN(S(=O)(=O)c2ccc3c(c2)CCCC(=O)N3)C1` (configuration not stated) reads inactive: -26%; that for `COc1ccc(N(Cc2cccs2)C(=O)COc2ccc(C(C)C)cc2)cc1`, inactive: -45%; that for `COc1ccc(S(=O)(=O)c2c(Nc3ccc(C)cc3)sc(C(=O)c3ccc4c(c3)OCO4)c2N)cc1`, inactive: -19%.
The figure for `CN(C)c1ccc(CN(CC2CCCO2)C(=O)c2ccc(Br)cc2)cc1` (configuration not stated) is inactive: -16.2%; for `Cc1ccc2[nH]c3c(=O)n(CC(=O)N4CCN(c5cccc(C(F)(F)F)c5)CC4)ncc3c2c1` it is inactive: -6.64%; for `CCOc1ccc(N2C(=O)N(Cc3c(F)cccc3Cl)c3ccccc3S2(=O)=O)cc1` it is inactive: -19.3%.
As to `COc1cccc(CNC(=O)CN2C(=O)CSc3c2c(C)nn3-c2ccccc2)c1`, the “activity change, positive = activation” value is inactive: -9.87%.
Regarding `Cc1ccc(-n2c(=O)c3ccc(C(=O)NCc4ccccc4Cl)cc3n(CC(=O)Nc3cccc(F)c3)c2=O)cc1`, the “activity change, positive = activation” value is inactive: -22.4%.
The result for `Cc1ccc(CN2CCNCC2)cc1NC(=O)CNc1ccc(F)c(F)c1` reads inactive: -5.94%; that for `Cc1ccc2[nH]c(CSc3nnc(COc4ccccc4C)n3C)cc(=O)c2c1`, inactive: -27.6%.
In the case of `CCOC(=O)N1CCC2(CC1)OC(=O)C(C)=C2C(=O)NCc1cccc(OC)c1`, the “activity change, positive = activation” value was inactive: -10%.
Take `Cn1c(=O)n(-c2cccc(Cl)c2)c(=O)c2sc3ccccc3c21`: the “activity change, positive = activation” value was inactive: -6.21%.
In the case of `Cc1cc(NC(=O)Cn2nc(C)n3cccc3c2=O)ccc1Br`, the “activity change, positive = activation” value is inactive: -15.4%.
With `CCCS(=O)(=O)N1CC(=O)N(c2ccccc2C)C(C)(C(=O)NC2CCCC2)C1` (configuration not stated), the “activity change, positive = activation” value was inactive: -8.83%.
The result for `CNC(=O)c1sc2ncccc2c1-n1cccc1` reads inactive: -2.37%; that for `Cc1cccc(-n2ncc(C(=O)NCc3ccccn3)c2C2CCN(C(=O)OC(C)(C)C)CC2)c1`, inactive: -7.22%; that for `CCN1CCN(Cc2c(O)ccc3c(C)c(-c4ccccc4)c(=O)oc23)CC1`, inactive: -12.9%.
The figure for `COc1ccc(CNc2cc(-c3ccc(OC)cc3)nc3nncn23)cc1` is inactive: -26.1%; for `O=C(CSc1nc2c(c(=O)[nH]1)CCCC2)Nc1ccc(Br)cc1` it is inactive: -20.7%; for `CCCC(C(=O)OCCN(CC)CC)(c1ccccc1)c1ccccc1` it is inactive: -29.3%.
As for `Cc1ccc(NC(=O)Cn2c(=O)n(CCC(=O)NCc3ccc4c(c3)OCO4)c(=O)c3sccc32)c(C)c1`, the “activity change, positive = activation” value was inactive: -15.7%.
As to `Cc1ccc(C)c(N2CCN(c3nc4ccccc4n4c(C)nnc34)CC2)c1`, the “activity change, positive = activation” value is inactive: -3.1%.
As to `Cc1ccc(NC(=O)C(c2ccccc2)N2Cc3ccccc3C2=O)cc1Cl` (configuration not stated), the “activity change, positive = activation” value was inactive: -14.4%.
Turning to `CCc1ccccc1NC(=O)CN1C(=O)c2cccnc2Oc2ccc(Cl)cc21`, the “activity change, positive = activation” value is inactive: -34.4%.
For the compound `CCOc1ccc(Br)cc1CNCCSc1nnnn1-c1ccccc1`, the “activity change, positive = activation” value is inactive: -15.2%.
The figure for `CC(C)(C)OC(=O)N1CCC(c2c(C(=O)Nc3ccc4c(c3)OCCO4)cnn2-c2ccccc2)CC1` is inactive: -49.5%.
With `CCc1ccc(NC(=O)c2nn(-c3ccc(C)cc3)c(=O)n(C)c2=O)cc1`, the “activity change, positive = activation” value is inactive: -11.7%.
The figure for `CO[C@H]1C(=O)[C@]2(C)[C@@H](OC)C[C@H]3OC[C@@]3(OC(C)=O)[C@H]2[C@H](OC(=O)c2ccccc2)[C@]2(O)C[C@H](OC(=O)[C@H](O)[C@@H](NC(=O)OC(C)(C)C)c3ccccc3)C(C)=C1C2(C)C` is inactive: -33.9%.
As for `COC(=O)NCc1c(C)nn(-c2ccccc2)c1-n1cccc1`, the “activity change, positive = activation” value was inactive: -15.2%.
The figure for `COc1ccc(CNC(=O)c2cc3c(s2)-c2c(C)cccc2OC3)cc1` is inactive: 4.13%.
The result for `CCOC(=O)c1oc2c(c1C)-c1nn(Cc3ccccc3Cl)cc1CC2` reads inactive: -30.7%; that for `Cc1ccc(C)c(NC(=O)C(=O)NCCc2csc3nc(-c4ccccc4C)nn23)c1`, inactive: -46.8%; that for `COc1ccc(-c2n[nH]c3c2C(c2ccc(O)cc2)N(c2ccc(Br)cc2)C3=O)cc1` (configuration not stated), inactive: -60.4%.
Consider `CSc1cccc(NC(=O)N2CCN(c3cc(-c4noc(C)n4)ccc3C)CC2)c1`, for which the “activity change, positive = activation” value was inactive: -34.7%.
The figure for `CCOC(=O)c1c(C)[nH]c(C)c1S(=O)(=O)N1CCCC(C(=O)Nc2ccc(F)cc2F)C1` (configuration not stated) is inactive: -6.76%.
`O=C(NC1CCCCCC1)c1ccc2c(c1)sc1nc(-c3ccccc3)cn12`: the “activity change, positive = activation” value was inactive: 11.5%.
`COc1cc(C2CC(=O)N(c3ccccc3)C3=C2C(=O)OC3)cc(OC)c1OC` (configuration not stated): the “activity change, positive = activation” value is inactive: -7.11%.
The result for `C=C(C)CSc1nc2sc3c(c2c(=O)n1-c1ccccc1)CCC(C)C3` (configuration not stated) reads inactive: 7.73% [at 11.5 µM, percent change from vehicle, -100% = no light]; that for `CCOc1ccc(NC(=O)CSc2cn(CC(=O)N3CCCCCC3)c3ccccc23)cc1`, inactive: -27%.
The result for `O=C(C1CCC(Cn2c(=O)c3sccc3n(Cc3cccc(F)c3)c2=O)CC1)N1CCCCC1` (configuration not stated) reads inactive: -43.1%; that for `O=C(NCCc1ccccc1)C(=O)NCC(c1cccnc1)N1CCN(c2ccccc2F)CC1` (configuration not stated), inactive: -45%; that for `COc1ccc(CCNC(=O)c2ccc(CS(=O)(=O)Cc3cccc(C)c3)o2)cc1OC`, inactive: -30.7%.
